Columns and labels:
human GLP-1R = human GLP-1R (human, UniProt P43220 24-463); experiment: cell-based or functional assay
[1] = target: human GCGR (full-length glucagon receptor of 477 amino acids) (human, UniProt P47871 26-477); experiment: cell-based or functional assay
Sequence of UniProt P47871 (P47871 26-477 limits assumed): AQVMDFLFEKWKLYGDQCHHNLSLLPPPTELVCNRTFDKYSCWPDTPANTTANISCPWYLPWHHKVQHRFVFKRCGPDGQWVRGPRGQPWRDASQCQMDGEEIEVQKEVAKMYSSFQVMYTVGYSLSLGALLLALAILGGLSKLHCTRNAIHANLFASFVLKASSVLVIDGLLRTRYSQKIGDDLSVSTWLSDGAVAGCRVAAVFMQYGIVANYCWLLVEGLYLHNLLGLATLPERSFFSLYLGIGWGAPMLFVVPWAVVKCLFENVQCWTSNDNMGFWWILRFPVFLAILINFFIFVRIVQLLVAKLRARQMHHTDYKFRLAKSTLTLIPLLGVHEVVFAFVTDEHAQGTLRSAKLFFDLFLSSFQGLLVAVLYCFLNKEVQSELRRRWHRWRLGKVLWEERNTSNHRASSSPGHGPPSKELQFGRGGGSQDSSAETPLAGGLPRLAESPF

Row | EC50 (human GLP-1R) | Emax % (human GLP-1R) | IC50 [1] | Imax (%) [1] | Binder
1 | 0.22 nM | 100% | 67 nM | 100% | hu1803-9B (other) heavy: HGEGTFTSDVSSYLEEEAAKEFIAWLVKGGGGGGGSGGGGSGGGGSEVQLVQSGAEVKKPGASVKVSCKASGYTFTDYWIEWVRQAPGQGLEWMGEILPGSTYTNYNEKFKGRVTMTRDTSTSTVYMELSSLRSEDTAVYYCARGLSTLMAVDYFDYWGQGTTVTVSSASTKGPSVFPLAPCSRSTSESTAALGCLVKDYFPEPVTVSWNSGALTSGVHTFPAVLQSSGLYSLSSVVTVPSSSLGTKTYTCNVDHKPSNTKVDKRV[human IgG4 Fc with S228P F234A L235A (EU numbers) left out] light: DIQMTQSPSSLSASVGDRVTITCRASQDISNYLNWYQQKPGKAVKLLIYYSSTLHSGVPSRFSGSGSGTDYTLTISSLQPEDFATYYCQQTNIFPWTFGGGTKVEIKRTVAAPSVFIFPPSDEQLKSGTASVVCLLNNFYPREAKVQWKVDNALQSGNSQESVTEQDSKDSTYSLSSTLTLSKADYEKHKVYACEVTHQGLSSPVTKSFNRGEC
2 | 0.32 nM | 100% | 79 nM | 100% | hu1803-9D (other) heavy: HGEGTFTSDVSSYLEEEAAKEFVAWLVKGGGGGGGSGGGGSGGGGSEVQLVQSGAEVKKPGASVKVSCKASGYTFTDYWIEWVRQAPGQGLEWMGEILPGSTYTNYNEKFKGRVTMTRDTSTSTVYMELSSLRSEDTAVYYCARGLSTLMAVDYFDYWGQGTTVTVSSASTKGPSVFPLAPCSRSTSESTAALGCLVKDYFPEPVTVSWNSGALTSGVHTFPAVLQSSGLYSLSSVVTVPSSSLGTKTYTCNVDHKPSNTKVDKRV[human IgG4 Fc with S228P F234A L235A (EU numbers) left out] light: DIQMTQSPSSLSASVGDRVTITCRASQDISNYLNWYQQKPGKAVKLLIYYSSTLHSGVPSRFSGSGSGTDYTLTISSLQPEDFATYYCQQTNIFPWTFGGGTKVEIKRTVAAPSVFIFPPSDEQLKSGTASVVCLLNNFYPREAKVQWKVDNALQSGNSQESVTEQDSKDSTYSLSSTLTLSKADYEKHKVYACEVTHQGLSSPVTKSFNRGEC
